From paper PMC12136788 come the findings set out here.

The other results are listed elsewhere or left out.

First the molecules themselves.
T1: UNK ZnF1-3 (human, UniProt Q9C0B0 31-174)
T1 sequence: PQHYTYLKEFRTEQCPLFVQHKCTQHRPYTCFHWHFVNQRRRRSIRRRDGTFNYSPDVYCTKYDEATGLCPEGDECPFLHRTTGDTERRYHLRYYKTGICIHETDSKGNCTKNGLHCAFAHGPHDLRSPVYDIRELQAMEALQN

B1: 125270748_125273069_130_CDS_ENSMUSG00000030654_ENSMUST00000032888|mouse|control|control (ssRNA)
RNA: GGGAGUUCUACAGUCCGACGAUCCAGCUGCUCUUCAAGACUUGCAGUCUCCACGGCCAGCAGGUUGCUGCUGCGGUUAUCCCCCUCCGCCAUCGUUCCAGACUCGCGGUUAUCAACGAGCGAACACACACUAUCCCCCCAACACAACAGAGGAUUGAGCAUCA
B2: chr7:90019327:90019328:+_ENSMUSG00000057706_ENSMUST00000082237|mus_hu|FALSE|FALSE (ssRNA)
RNA: GGGAGUUCUACAGUCCGACGAUCUGAAAUAUAAUUUUUCAAGUCAAAAAAGAAUAAAAUACUUCAAUCUGUAUUAAUGCAAUUUCUCUUUAAAACUUUUAAACGUUUUUAAUAUAUAAGAGAUAUGUUACAGUUUCUUUAACUCAACAGAGGAUUGAGCAUCA
B3: chr9:66219948:66219949:+_ENSMUSG00000038664_ENSMUST00000042824|mus_hu|FALSE|FALSE (ssRNA)
RNA: GGGAGUUCUACAGUCCGACGAUCCUGCUUCACCUUGCCUUUGUCAUGGUAUUUAUUAGAAAGUGCAUAAAAGACACGCUGGAGUACAAGCAGUCGUUUUCUAAGUGCCCCGGCAAAUGGGGAAUCUGAACAUACCAUCUUUGCCAACAGAGGAUUGAGCAUCA
B4: chr1:193054138:193054139:+_ENSG00000116747_ENST00000432079|hu_mus|FALSE|FALSE (ssRNA)
RNA: GGGAGUUCUACAGUCCGACGAUCUUAUACUCUGUAUCACACUUUCAGAACAAAGGUGUGAUUCAGUGAAGUAAAACACCACUAUUGUACAGUGUCUAUUAAAACGAAGUUCUCUACAGAGGAAGCUACAGUAUCCUGAAGACUCAACAGAGGAUUGAGCAUCA
B5: chr2:160775391:160775392:-_ENSMUSG00000057133_ENSMUST00000039782|mus_mus|FALSE|FALSE (ssRNA)
RNA: GGGAGUUCUACAGUCCGACGAUCGAUGAGUCCAGGAGACACUCCUGGGAUGAGAAAUGGGUUGAAAGCCACAGGACUACUAGUAGUUAUUGUGGGUUCUGACUGAUCAGAAAACGGACUAGGGCCAGGCUUGUCGUCUACCAGCAACAGAGGAUUGAGCAUCA
B6: 43513707_43515436_3362_CDS_ENSG00000052841_ENST00000039989|human|control|control (ssRNA)
RNA: GGGAGUUCUACAGUCCGACGAUCCUUCUUCAGCAUUAAGUGACACUGGAUGGUCUGGAUUCGGUUCUUGGCUGGGACAAACUCGGGCUGAAGCUUCAAUGUGGAUUCAUACCACACCAGUGCUUUUUCAAAUUCUUCCAUUGCCAACAGAGGAUUGAGCAUCA
B7: chr17:7477944:7477945:+_ENSG00000161960_ENST00000293831|hu_mus|FALSE|FALSE (ssRNA)
RNA: GGGAGUUCUACAGUCCGACGAUCAUAACCCUUGAUACAAGGAAGAAUAGCUCGCUGCUGGAUGGCAGAGGGCUUCUCAAAACCAUAGGCAUAAAUACCACGGAGGAGGGACUCUGAGAGAUUCAUGUCAUCAAAGCUAUCCACCAACAGAGGAUUGAGCAUCA
B8: chr17:74040031:74040032:-_ENSG00000167881_ENST00000307877|hu_hu|FALSE|FALSE (ssRNA)
RNA: GGGAGUUCUACAGUCCGACGAUCAUACAGGACAAGGGCUUCGCUCCACUUCUUCACCAGCACAUAGGACUGAGCAAUGAAAAAACACCUGUAAGCUUUGAACACCAGAGUCUUGAGGCCUAUCUCUUUCUGGAAGGCUUUGUCCAACAGAGGAUUGAGCAUCA
B9: chr2:47387409:47387410:-_ENSG00000143933_ENST00000272298|hu_hu|FALSE|FALSE (ssRNA)
RNA: GGGAGUUCUACAGUCCGACGAUCAUACAACUUGGAAUGGAUUUUGAGGCAAAUUGUGCCAUAAGCAGAUUUUAAGUGGCUAAACAAAGUUUAAAAAGCAAGUAACAAUAAAAGAAAAUGUUUCUGGUACAGGACCAGCAGUACCAACAGAGGAUUGAGCAUCA
B10: chr2:202488911:202488912:-_ENSG00000155755_ENST00000286196|hu_mus|hu_hu_hu_mus_False|88_108 (ssRNA)
RNA: GGGAGUUCUACAGUCCGACGAUCAUUUAACAUUUUUUCAUAAUCUCAGAGAUGUUUUCAGCAUUAUGUAACAAAAGCUCAAUUGUAAAUACAUGUAUCUUAUAAAAAUACACUUAAAAACACGAGUGGGGAGCGCAGGCGCCACAACAGAGGAUUGAGCAUCA
B11: 57741037_57741157_616_CDS_ENSG00000053770_ENST00000261558|human|control|control (ssRNA)
RNA: GGGAGUUCUACAGUCCGACGAUCACCUCCUAUCAGGAGUCCAUAAAUGGAUGUUUUAUUGAUGCGUGAACAGCUAUCACGACUCUCAACGAAGUCUUUAUCAUCAUCCAAUAAUCUAAGUUCAAAGAGCAGUGCUUUAAGAAACAACAGAGGAUUGAGCAUCA
B12: chr5:17772112:17772113:-_ENSMUSG00000057614_ENSMUST00000074694|mus_hu|FALSE|FALSE (ssRNA)
RNA: GGGAGUUCUACAGUCCGACGAUCGUAUAUCCUCAGAAAUCUGAAAUUUUAGUUUUUCAAACCAAAUCUAACGUGGAAUCUAAUGUAAAAUUAAAUUAUUUUAUUUUCUUAAAGUAGGAAAAAUCAAAAUGCAUACAAUGUUUACAACAGAGGAUUGAGCAUCA
B13: chr12:110929880:110929881:-_ENSG00000111237_ENST00000549970|hu_hu|FALSE|FALSE (ssRNA)
RNA: GGGAGUUCUACAGUCCGACGAUCUUCGAUUCGUUCUACUUUCACAUCAUCUCCAAUUAGCUGAUACACAUAGGUGACCACUGUAGAAGCCUGGAUAUCCAUCAACACAAAUGAUGGAAUAAUGUUUGUUUCCAAGGCAUUAUACAACAGAGGAUUGAGCAUCA
B14: chr7:150069161:150069162:+_ENSG00000214022_ENST00000425389|hu_mus|FALSE|FALSE (ssRNA)
RNA: GGGAGUUCUACAGUCCGACGAUCCUCGGUGCAUGGGUAGGGCUUCUCGCCGGUAUGUAUGCGCCGGUGCGAGGUCAGGUAGGGCUUGUUGGUGAAACGCUUCCCGCACUCUGGGCACUGGUGUGGUCGCUCACCAGUGUGCACCAACAGAGGAUUGAGCAUCA

In the test the target is T1, UNK ZnF1-3. The test can be described thus: nsRBNS (natural sequence RNA bind-n-seq); RBNS binding buffer (assumed for nsRBNS): 25 mM Tris pH 7.5, 150 mM KCl, 3 mM MgCl2, 0.01% Triton X-100, 500 ug/ml BSA, 20 U/ml SUPERase-In, 4 C; UNK is unkempt and MSI1 is Musashi-1; names of the RNAs are library labels; protein concentration not given here; high values mean tight binding.
Molecule B1 yielded a binding signal of 1.15 enrichment R.

Turning to B2, the binding signal was found to be 0.764 enrichment R.

For the molecule B3, the binding signal is 1.25 enrichment R.

As for B4, the binding signal was 0.525 enrichment R.

As for B5, the binding signal came to 1.13 enrichment R.

Take B6: the binding signal is 0.616 enrichment R.

Turning to B7, the binding signal is 1.02 enrichment R.

Turning to B8, the binding signal came out at 2.27 enrichment R.

B9 returned a binding signal of 1.9 enrichment R.

In turn, B10 came in with a binding signal of 0.724 enrichment R.

With B11, the binding signal was 0.585 enrichment R.

For B12, the binding signal stood at 1.17 enrichment R.

Take B13: the binding signal came out at 1.29 enrichment R.

B14: the binding signal amounted to 0.494 enrichment R.
